Measured values taken from PMC12016936.
These are yes or no findings as the source states them, for the method shown. In cells and extracts the contact can be indirect. Some binding calls cover weakened binding; strength is not graded here.

Protein sequences, listed by entry. Tags and fused reporters are not part of them. Lines headed by an entry give the natural chain unless they say otherwise; changes in a name come on top. Chains listed by the source or under a name are the forms on record and can include a tag or linker.
UniProt O43791: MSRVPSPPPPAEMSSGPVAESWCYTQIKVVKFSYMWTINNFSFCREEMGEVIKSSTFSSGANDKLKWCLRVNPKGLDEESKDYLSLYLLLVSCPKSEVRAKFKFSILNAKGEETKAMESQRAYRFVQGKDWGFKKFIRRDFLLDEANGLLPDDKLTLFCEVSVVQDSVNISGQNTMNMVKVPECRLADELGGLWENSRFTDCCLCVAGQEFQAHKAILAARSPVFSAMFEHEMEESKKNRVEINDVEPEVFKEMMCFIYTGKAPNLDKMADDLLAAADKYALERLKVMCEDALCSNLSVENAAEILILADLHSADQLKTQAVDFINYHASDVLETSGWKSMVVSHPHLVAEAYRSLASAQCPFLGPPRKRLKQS
FLAG-SPOP-3KR (O43791, form named): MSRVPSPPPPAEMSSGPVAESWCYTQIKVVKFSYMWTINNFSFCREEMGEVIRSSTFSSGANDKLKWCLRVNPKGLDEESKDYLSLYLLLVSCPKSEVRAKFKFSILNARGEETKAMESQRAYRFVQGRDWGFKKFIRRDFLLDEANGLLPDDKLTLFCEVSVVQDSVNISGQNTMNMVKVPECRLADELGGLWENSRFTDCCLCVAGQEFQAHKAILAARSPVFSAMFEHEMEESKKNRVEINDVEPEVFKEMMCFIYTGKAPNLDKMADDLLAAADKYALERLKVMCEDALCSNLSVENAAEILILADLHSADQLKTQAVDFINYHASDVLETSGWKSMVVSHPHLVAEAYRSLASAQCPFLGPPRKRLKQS
UniProt O75925: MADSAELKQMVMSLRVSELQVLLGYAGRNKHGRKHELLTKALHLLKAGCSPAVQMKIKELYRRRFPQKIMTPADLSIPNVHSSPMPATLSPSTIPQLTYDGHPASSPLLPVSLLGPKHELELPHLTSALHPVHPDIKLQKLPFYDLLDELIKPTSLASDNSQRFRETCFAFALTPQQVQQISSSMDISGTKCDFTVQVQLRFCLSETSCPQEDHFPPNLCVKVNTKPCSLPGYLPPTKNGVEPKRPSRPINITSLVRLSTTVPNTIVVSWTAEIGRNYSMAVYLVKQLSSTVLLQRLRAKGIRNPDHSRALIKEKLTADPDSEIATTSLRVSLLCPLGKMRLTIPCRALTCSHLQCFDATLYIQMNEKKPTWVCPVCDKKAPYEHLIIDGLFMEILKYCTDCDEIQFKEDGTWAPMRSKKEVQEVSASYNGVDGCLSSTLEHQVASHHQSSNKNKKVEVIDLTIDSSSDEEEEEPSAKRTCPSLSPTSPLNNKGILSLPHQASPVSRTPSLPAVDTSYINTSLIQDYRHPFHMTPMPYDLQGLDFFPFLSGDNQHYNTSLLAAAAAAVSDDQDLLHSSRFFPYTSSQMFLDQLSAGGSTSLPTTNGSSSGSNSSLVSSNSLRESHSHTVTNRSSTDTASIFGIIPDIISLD

What was measured:
[1] = target: SPOP (endogenous) (human (endogenous in PC-3 or HEK-293T)) (UniProt O43791); assay: co-IP; in vivo interaction assay, endogenous PIAS1 and SPOP; HEK-293T cells (legend; the text says PC-3); cells with or without olaparib (10 μM)
GST-SPOP = GST-SPOP (UniProt O43791); assay: pull-down; GST-SPOP immobilised on glutathione-Sepharose beads, incubated 2 h with lysates of Myc-PIAS1-transfected HEK-293T cells; pull-down buffer 20 mM Tris-HCl pH 7.5, 150 mM NaCl, 0.1% NP-40, 1 mM DTT, 10% glycerol, 1 mM EDTA, 2.5 mM MgCl2; cells with or without olaparib (10 μM) and silmitasertib; lysates with or without λ protein phosphatase; only the target purified
FLAG-SPOP-WT [2] = target: FLAG-SPOP-WT (UniProt O43791); assay: co-IP; in vivo interaction assay, exogenous PIAS1 and SPOP; HEK-293T cells (legend; the text says PC-3); cells with or without olaparib (10 μM)
FLAG-SPOP-WT [3] = target: FLAG-SPOP-WT (UniProt O43791); assay: co-IP; in vivo interaction assay of SPOP-WT or PCa-associated SPOP mutants with PIAS1 under olaparib treatment; mutants also co-expressed with SPOP-WT
SPOP-F125V = SPOP-F125V (UniProt O43791); assay: as above
SPOP-F133L = SPOP-F133L (UniProt O43791); assay: as above
SPOP-K101I = SPOP-K101I (UniProt O43791); assay: as above
SPOP-K129E = SPOP-K129E (UniProt O43791); assay: as above
SPOP-L90V = SPOP-L90V (UniProt O43791); assay: as above
FLAG-SPOP-3KR = FLAG-SPOP-3KR (UniProt O43791); assay: co-IP; in vivo SUMOylation assay: HEK-293T cells transfected with FLAG-SPOP-WT or -MUT and Myc-PIAS1, olaparib (10 μM), 20 μM MG132 for 8 h; anti-FLAG magnetic beads overnight at 4°C; blot with anti-FLAG, anti-Myc, anti-SUMO1
FLAG-SPOP-K110R = FLAG-SPOP-K110R (UniProt O43791); assay: as above
FLAG-SPOP-K129R = FLAG-SPOP-K129R (UniProt O43791); assay: as above
FLAG-SPOP-K53R = FLAG-SPOP-K53R (UniProt O43791); assay: as above
FLAG-SPOP-WT [4] = target: FLAG-SPOP-WT (UniProt O43791); assay: as above

| Substance | binding [1] | binding (GST-SPOP) | binding (FLAG-SPOP-WT [2]) | binding (FLAG-SPOP-WT [3]) | binding (SPOP-F125V) | binding (SPOP-F133L) | binding (SPOP-K101I) | binding (SPOP-K129E) | binding (SPOP-L90V) | binding (FLAG-SPOP-3KR) | binding (FLAG-SPOP-K110R) | binding (FLAG-SPOP-K129R) | binding (FLAG-SPOP-K53R) | binding (FLAG-SPOP-WT [4]) |
| --- | --- | --- | --- | --- | --- | --- | --- | --- | --- | --- | --- | --- | --- | --- |
| PIAS1 (endogenous) (from UniProt O75925 1-651) | binds |  |  |  |  |  |  |  |  |  |  |  |  |  |
| Myc-PIAS1-S468A (from UniProt O75925 1-651) |  | binds |  |  |  |  |  |  |  |  |  |  |  |  |
| Myc-PIAS1-WT (from UniProt O75925 1-651) |  | binds | binds | binds | no binding | no binding | no binding | no binding | no binding | binds | binds | binds | binds | binds |
